# Measurements taken from PubChem BioAssay AID686979 (National Center for Advancing Translational Sciences (NCATS), 2013).
# Hit rate of the full screen: of about 420,000 compounds, about 50,000 (12%) were called active. The shares of active, inactive and inconclusive entries below differ from those in the screen. Calls follow the shape of the dose curve; as a rule, active = well fitted inhibition curve with a large enough effect; inconclusive = small, poorly fitted or top-dose-only effect; inactive = flat fitted curve, though single readings scatter. Potencies of inconclusive entries are left out as doubtful fits.
# Assay: qHTS for Inhibitors of human tyrosyl-DNA phosphodiesterase 1 (TDP1): qHTS in cells in presence of CPT; also: nearly all actives have a fitted effect of over 55% in size
# Conditions: chicken DT40 Tdp1-/-;hTDP1 cells + 20 nM CPT, ATP luminescence, 48 h; activity change, negative = growth inhibition: at 46.2 µM (top of the series) unless noted
# Summary of the method: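 Chicken DT40 Tdp1-/- cells stably complemented with human TDP1 were seeded at 400 cells/well in medium containing 20 nM camptothecin, exposed to pin-transferred compounds, and grown at 37 °C for at least 48 hr. Viability was read as ATP luminescence.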
# % is scaled to controls: 0 for no effect and ±100 for the full control effect; potency is read from the fitted curve at half-maximal effect; tags tell the direction and shape of the fitted curve.
SMILES,Potency,"activity change, negative = growth inhibition"
CN1CCN(S(=O)(=O)c2cccc(C(=O)N(C)C(c3ccccc3)c3ccccc3)c2)CC1,"inconclusive [inhibitor, single point]",
COc1ccccc1NCC(O)COc1ccc(C(C)(C)C)cc1 (configuration not stated),active: 14.6 µM,
CC(C)CC1C(=O)N(Cc2cn(CCC3OCCCO3)nn2)CCS(=O)(=O)N1Cc1ccc(-c2cccc(CO)c2)cc1 (configuration not stated),,inactive: -25.7%
CCOC(=O)C1CCCN(CC(=O)/C=C2/N(C)c3ccccc3C2(C)C)C1 (configuration not stated),"inconclusive [inhibitor, single point]",
CCOc1ccccc1N(C)C(=O)Cn1ncc2c([nH]c3ccccc32)c1=O,"inconclusive [inhibitor, single point]",
Fc1ccc(NC(=S)NNc2ncc(C(F)(F)F)cc2Cl)c(F)c1,active: 11.6 µM,
c1ccc(-c2nc(NCC3CCCO3)c3oc4ccccc4c3n2)cc1 (configuration not stated),,inactive: -19.7%
CCn1c(=O)c(C(=O)Nc2ccc(C(C)=O)cc2)nc2ccccc21,,inactive: -15.2%
Cc1ccc2cc(C3CC(c4ccco4)=NN3C(=O)CCCC(=O)O)c(Cl)nc2c1 (configuration not stated),"inconclusive [inhibitor, single point]",
COc1cc(NC(=O)c2cccc3c2C(=O)N(C2CCCCC2)C3)cc(OC)c1,,inactive: -6.16%
O=C(COC(=O)c1cc[n+]([O-])cc1)Nc1cc([N+](=O)[O-])ccc1Cl,,inactive: 14.3%
Cc1cc(NCCN2CCOCC2)c2ccc3ccccc3c2n1,"inconclusive [inhibitor, single point]",
COc1cccc(N2CCN(C(=O)CCCCCn3c(=S)[nH]c4cc5c(cc4c3=O)OCO5)CC2)c1,active: 20.6 µM,
COc1ccc(C2Nc3ccccc3C(=O)N2c2ccc(F)cc2)cc1CSc1ccccn1 (configuration not stated),"inconclusive [inhibitor, single point]",
O=C1N=C(N2CCCC2C(=O)O)S/C1=C\c1ccco1 (configuration not stated),active: 8.2 µM,
O=C1CN(S(=O)(=O)c2ccccc2)CCN1,,inactive: 12.4%
CN1OC[C@@H]2CN[C@H](c3cccc(-c4cc(Cl)cc(Cl)c4)c3)C[C@@H]21,"inconclusive [inhibitor, single point]",
O=C(O)c1c[nH]c2c([N+](=O)[O-])cccc2c1=O,"inconclusive [inhibitor, partial curve, poor fit]",
O=C(O)c1cc2cc(Cl)ccc2[nH]1,inactive,
O=C(CNS(=O)(=O)c1ccccc1)Nc1ccc(C(F)(F)F)cc1,active: 16.4 µM,
CCOc1ccc(NC(=O)CN(C)C(=O)CCSc2ccc(F)cc2)cc1OCC,,inactive: -29.6%
O=C(NCCc1c[nH]c2ccccc12)C(=O)NCC(c1cccnc1)N1CCN(c2ccccc2)CC1 (configuration not stated),active: 18.4 µM,
CCCCCOC(=O)c1ccc(OC(=O)c2cncc(Br)c2)cc1,,inactive: -3.08%
CCn1c(/C=C/c2ccccc2)nc2ccccc2c1=O,"inconclusive [inhibitor, single point]",

SMILES,Potency,"activity change, negative = growth inhibition"
CCCNC(=O)COc1coc(CN2CCN(c3cccc(Cl)c3)CC2)cc1=O,,inactive: 2.68%
COc1ccc(N2CCN(C(=O)c3cc(-c4cc(OC)ccc4OC)nc4ccccc34)CC2)cc1,active: 23.1 µM,
Cn1nc(C(=O)N2CCC(C(N)=O)CC2)c2c1-c1ccccc1SC2,"inconclusive [inhibitor, single point]",
COc1cc(C(=O)Nc2nc3ccc(S(C)(=O)=O)cc3s2)cc(OC)c1C,"inconclusive [inhibitor, single point]",
CCOP(=O)(NC(c1ccccc1)c1nc2ccccc2[nH]c1=O)OCC (configuration not stated),,inactive: 3.8%
C=CCOc1c(Br)cc(/C=C(\C#N)C(N)=O)cc1OC,"inconclusive [inhibitor, single point]",
CCCCC(=O)NC(c1ccccc1Cl)c1c(O)ccc2ccccc12 (configuration not stated),"inconclusive [inhibitor, single point]",
O=C(NC(=S)Nc1ccc2[nH]ncc2c1)c1ccccc1,"inconclusive [inhibitor, single point]",
O=S(=O)(c1cccs1)N1CN(Cc2ccc(F)cc2)c2nc3ccccc3nc21,"inconclusive [inhibitor, single point]",
Cc1ccc(/C=C/C(=O)CCC(=O)O)cc1,,inactive: 2.94%
NC(=O)c1nn(-c2ccccc2)nc1NC(=O)CSc1nnnn1-c1ccc(Cl)cc1,"inconclusive [inhibitor, partial curve, poor fit]",
COc1ccccc1NS(=O)(=O)c1cccc(NC(=O)c2cc3ccccc3oc2=O)c1,"inconclusive [inhibitor, partial curve]",
O=[N+]([O-])c1ccc(CSc2ccc(S(=O)(=O)N3CCOCC3)cn2)cc1,"inconclusive [inhibitor, single point]",
CSCCC(NC(=O)COc1ccccc1)C(=O)N1CCN(c2ccccc2)CC1 (configuration not stated),,inactive: -12.5%
O=C(C=Cc1ccccc1)c1c[nH]c2ccccc2c1=O,active: 6.51 µM,
CCCCCc1ccc(OCCOCCn2c[n+](C)c3ccccc32)c(CCCCC)c1,active: 2.31 µM,
Cc1cc(/C=C2/SC(=O)NC2=O)c(C)n1-c1ccc(N2CCOCC2)cc1,"inconclusive [inhibitor, single point]",
C#CCSc1nc2sc3c(c2c(=O)n1Cc1ccccc1)CCCC3,"inconclusive [inhibitor, single point]",
Cc1cc([N+](=O)[O-])ccc1NC(=O)CN1C2CCC1CC(NC(=O)NC13CC4CC(CC(C4)C1)C3)C2 (configuration not stated),active: 14.6 µM,
Cc1cc(C)c(OCC(=O)Nc2ccccc2N2CCCCC2)c(C)c1,"inconclusive [inhibitor, single point]",
COc1ccc([N+](=O)[O-])cc1NCC(=O)c1ccc(C)cc1,"inconclusive [inhibitor, single point]",
CC(C)(O)c1[nH]c2cc(C(F)(F)F)ccc2c1C(C)(C)O,"inconclusive [inhibitor, single point]",
CC(=O)c1ccc(F)c(-c2cc(C)cc3c2OC(CNC(=O)c2cccnc2)C3)c1 (configuration not stated),,inactive: 21.4% [at 9.04 µM]
CC(C)Oc1ccc(F)cc1-c1cc(C(=O)NCc2ccc(F)cc2)[nH]n1,active: 25.9 µM,

SMILES,Potency,"activity change, negative = growth inhibition"
O=C(Nc1cc(S(=O)(=O)N2CCOCC2)ccc1OCC(F)(F)F)C1=COCCO1,,inactive: -16%
Cc1cc(-c2csc(NC(=O)C3=COCCO3)n2)c(C)n1C,"inconclusive [inhibitor, single point]",
CCOC(=O)c1sc2ncnc(NCC(c3cccs3)N(C)C)c2c1C (configuration not stated),active: 29.1 µM,
CC(=O)CCC(=O)N1CCCC(CNC(=O)c2ccc(-c3ccccc3)cc2)C1 (configuration not stated),"inconclusive [inhibitor, single point]",
C=CCn1c(C(C)(C)C)nc2ccccc21,,inactive: -16.4%
COc1ccc(CN(C)C(=O)c2ccc(OCC(=O)Nc3cccc(C(F)(F)F)c3)c(OC)c2)c(OC)c1,"inconclusive [inhibitor, single point]",
O=C(NCc1ccco1)c1ccccc1NS(=O)(=O)c1ccc(Cl)s1,"inconclusive [inhibitor, single point]",
Cc1ccc(CS(=O)(=O)c2ncc(Cl)c(C(=O)Nc3nc4ccc(C)cc4s3)n2)cc1,active: 2.91 µM,
COc1ccc(C2=C/C(=C\c3cccc(OC(C)=O)c3)C(=O)O2)cc1,"inconclusive [inhibitor, single point]",
CC1CCCCN1S(=O)(=O)c1ccc(C(=O)Nc2sc3c(c2C(N)=O)CC(C)(C)NC3(C)C)cc1 (configuration not stated),active: 25.9 µM,
O=C(Nc1cc(S(=O)(=O)N2CCOCC2)ccc1N1CCCCC1)c1ccc(Cl)cc1,active: 18.4 µM,
Cc1cc(Nc2ccc(Cl)cc2)nc(-c2ccccc2O)n1,"inconclusive [inhibitor, single point]",
COC(=O)c1ccc(/C=C/C(=O)OCC(=O)NCc2cccs2)cc1,,inconclusive: -3.75% [inhibitor]
COCCN(CCOC)Cc1cc(=O)oc2cc(C)c(Cl)cc12,,inactive: -13.2%
CCOCCCNC(=O)c1[nH]c2cc(C)ccc2c1Sc1ccc(Cl)cc1,"inconclusive [inhibitor, single point]",
Cn1cccc1C(=O)N1CCC2(CC1)CCN(c1ccccc1)CC2,"inconclusive [inhibitor, single point]",
CCNC(=O)N1CCCC(C(=O)c2ccc(OC)c(OC)c2)C1 (configuration not stated),,inactive: -20.5%
COc1ccc(Cc2nnc(Nc3ccccc3)s2)cc1Br,"inconclusive [inhibitor, single point]",
COc1cccc(-c2cnc3cccnn23)c1,"inconclusive [inhibitor, single point]",
O=C(Cc1ccccc1)N/N=C/c1ccc(Cl)cc1Cl,,inactive: -18.1%
CCCCN(CCCC)CCNC(=O)Cn1nc(CC)n2c(cc3sc(C)cc32)c1=O,active: 14.6 µM,
O=S1(=O)c2ccccc2N(Cc2cccc(C(F)(F)F)c2)c2ccccc21,"inconclusive [inhibitor, single point]",
C[C@H](O)C#Cc1cnc2c(c1)C(=O)N([C@H](C)CO)C[C@@H](C)[C@@H](CN(C)Cc1ccc(-c3ccccc3)cc1)O2,"inconclusive [inhibitor, partial curve, poor fit]",
CCn1c(SCC(=O)Nc2ccccc2Br)nnc1-c1cnccn1,"inconclusive [inhibitor, single point]",
